Data from PubChem BioAssay AID686978 (National Center for Advancing Translational Sciences (NCATS), 2013).
Out of some 420,000 compounds screened, about 64,000 (15%) were called active. Inconclusive results, whose numbers are uncertain, are shown with a selection of clear calls. Calls come from the whole dose curve; as a rule, active = well fitted inhibition curve with a large enough effect; inconclusive = small, poorly fitted or top-dose-only effect; inactive = flat fitted curve, though single readings scatter. Potencies of inconclusive entries are left out as doubtful fits.

Test: qHTS for Inhibitors of human tyrosyl-DNA phosphodiesterase 1 (TDP1): qHTS in cells in absence of CPT; note: nearly all actives have a fitted effect of over 55% in size
Conditions: DT40 Tdp1-/- hTDP1 cells, no CPT, ATP luminescence, 48 h; activity change, negative = growth inhibition: at 46.2 µM (top of the series) unless noted
Procedure, shortened: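 Cells were dispensed at 400 per well, compounds added by pin tool, plates incubated ≥48 hr at 37 °C, then CellTiter-Glo added for 30 min at room temperature before luminescence reading. Line: DT40 Tdp1-/- complemented with hTDP1; camptothecin omitted.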
% is set by controls: 0 for no effect and ±100 for the full control effect; potency is the fitted concentration of half-maximal effect; tags give direction and shape of the fitted curve.

For Cc1ccc(S(=O)(=O)NCC(c2ccc3c(c2)OCO3)N2CCN(c3ccccc3)CC2)cc1 (centres undefined), which Potency is on record?
The Potency was inconclusive [inhibitor, single point].

Which “activity change, negative = growth inhibition” value does the source give for Cc1cccc(N2C(=O)C3CC3C2=O)c1 (centres undefined) here?
The value was inactive: -5.73%.

For C=CCn1c(SCC(=O)Nc2cccc(S(N)(=O)=O)c2)nc2sc(C)c(C)c2c1=O, which Potency is on record?
The Potency was inconclusive [inhibitor, single point].

For O=C(Cc1ccc2c(c1)OCCO2)Nc1cc(Cl)ccc1N1CCOCC1, which Potency is on record?
The Potency was inconclusive [inhibitor, partial curve].

For Cn1cc(CN2CCC(Oc3ccc(C(=O)N4CCCCC4)cc3)CC2)cn1, which “activity change, negative = growth inhibition” value is on record?
The value was inactive: -0.474%.

For Cc1nc2ccc([N+](=O)[O-])cc2nc1C, which “activity change, negative = growth inhibition” value is on record?
The value was inactive: 5.58%.

For C[C@@]12C(=O)N(c3cccc(Br)c3)C(=O)N1[C@H](c1ccc(Cl)cc1)[C@@H]1C(=O)N(C3CCCCC3)C(=O)[C@@H]12, which Potency is on record?
Its Potency is inconclusive [inhibitor, single point].

With COc1ccc(OC)c(NC(=O)c2ccc(OCC(=O)N3CCOCC3)c(OC)c2)c1 as the compound, how does the Potency read?
Its Potency is inconclusive [inhibitor, single point].

With CCC(=O)NC(c1ccccc1Cl)c1c(O)ccc2ccccc12 (centres undefined) as the compound, how does the Potency read?
The Potency was inconclusive [inhibitor, single point].

Which Potency does the source give for CCCN1C(C(=O)c2ccccc2)=C(OC(=O)c2ccc(OC)cc2)c2ccccc2S1(=O)=O here?
The Potency was active: 5.17 µM.

For CN(Cc1ccc(F)cc1)S(=O)(=O)c1nnc(NC(=O)c2ccccc2Cl)s1, which Potency is on record?
The Potency was inconclusive [inhibitor, partial curve].

With CC(C)(C)NCC(O)COc1ccccc1C(C)(C)C (centres undefined) as the compound, how does the Potency read?
Its Potency is inconclusive [inhibitor, single point].

For Cc1nc(N)nc(N(C)c2ccccc2)c1Br, which Potency is on record?
Its Potency is inconclusive [inhibitor, single point].

For Cn1nnnc1SCCCNCc1ccc(-c2ccc(F)c(Cl)c2)o1, which Potency is on record?
Its Potency is inconclusive [inhibitor, single point].

For COc1ccc(S(=O)(=O)N2CCc3cc(OC)c(OC)cc3C2)cc1, which “activity change, negative = growth inhibition” value is on record?
The value was inactive: -5.71%.

With COc1ccc(CN2CCCC(c3nc(-c4ccncc4)ncc3-c3ccccc3C)C2)c(OC)c1 (centres undefined) as the compound, how does the Potency read?
The Potency was inconclusive [inhibitor, full curve, poor fit].

With C=CCNC(=S)Nc1ccc(F)cc1F as the compound, how does the Potency read?
The Potency was inconclusive [inhibitor, partial curve].

With CCC(=O)N1CCN(c2ccc(Cl)cc2NC(=O)c2ccc([N+](=O)[O-])o2)CC1 as the compound, how does the Potency read?
The Potency was inconclusive [inhibitor, partial curve].

For Cc1cc(=O)n(CC(=O)NCc2ccc(OC(C)C)cc2)c2c1c(C)nn2-c1cccc(F)c1, which Potency is on record?
Its Potency is inconclusive [inhibitor, single point].

For O=C(COc1ccc2ccccc2c1)Nc1ccncc1, which Potency is on record?
The Potency was active: 16.4 µM.

With CCCOc1ccc(Cc2c(O)nc(SC)[nH]c2=O)cc1C as the compound, how does the “activity change, negative = growth inhibition” value read?
Its value is inactive: 13.4%.

Which Potency does the source give for COc1cccc(/C=N/n2c(C)nc3ccccc32)c1OC here?
Its Potency is inconclusive [inhibitor, single point].

Which Potency does the source give for CSCCC(NC(=O)COc1ccccc1)C(=O)N1CCN(c2cccc(C(F)(F)F)c2)CC1 (centres undefined) here?
The Potency was active: 13 µM.

With Cc1cc(=O)n2nc(N3CCCC(C(=O)NCCC4=CCCCC4)C3)sc2n1 (centres undefined) as the compound, how does the “activity change, negative = growth inhibition” value read?
The value was inactive: -3.34%.

For CCCNC(=O)c1cc(C2CCCN(S(=O)(=O)c3cccs3)C2)on1 (centres undefined), which Potency is on record?
The Potency was inconclusive [inhibitor, partial curve].

With O=C(NCCc1ccccc1)c1ccc(CS(=O)(=O)Cc2ccccc2Cl)o1 as the compound, how does the Potency read?
The Potency was inconclusive [inhibitor, single point].

With COc1ccccc1C(=O)Nc1ccc(C)c(S(=O)(=O)N2CCCCC2)c1 as the compound, how does the Potency read?
The Potency was inconclusive [inhibitor, single point].

Which Potency does the source give for CCCN(CC(=O)Nc1ccccc1C)C(=O)c1cccc(S(=O)(=O)N2CCc3ccccc3C2)c1 here?
Its Potency is inconclusive [inhibitor, partial curve].

With c1ccc(-c2cnc(CSc3ncnc4sccc34)o2)cc1 as the compound, how does the Potency read?
The Potency was inconclusive [inhibitor, single point].

For CNC(=O)NCCN1CCCC1=O, which “activity change, negative = growth inhibition” value is on record?
Its value is inactive: -19.7%.

Which Potency does the source give for O=C(COC(=O)c1cccc(NC(=O)c2ccco2)c1)c1ccc(Br)cc1 here?
Its Potency is inconclusive [inhibitor, single point].

Which Potency does the source give for Cc1nc(-c2ccc(F)cc2)c(CC(=O)NCC(=O)Nc2ccc(F)c(F)c2)s1 here?
The Potency was inconclusive [inhibitor, single point].

For C=COCCn1c(-c2nonc2N)nc2ccccc21, which Potency is on record?
Its Potency is inconclusive [inhibitor, single point].

With Cc1cc(C)cc(NS(=O)(=O)c2ccc(N3CCCCS3(=O)=O)cc2)c1 as the compound, how does the Potency read?
Its Potency is active: 14.6 µM.

For O=S(=O)(/N=C(/Sc1ccccc1)c1ccccc1)c1ccccc1, which Potency is on record?
Its Potency is active: 14.6 µM.

For CCOC(=O)c1sc(-c2ccccc2)cc1NC(=O)Nc1ccccc1, which Potency is on record?
Its Potency is inconclusive [inhibitor, partial curve].

For CC1Oc2ccccc2C=C1/C=C1/SC(N2CCOCC2)=NC1=O (centres undefined), which Potency is on record?
Its Potency is inconclusive [inhibitor, partial curve].

Which activity change, negative = growth inhibition does the source give for CSc1ccc(CNc2ccccn2)cc1 here?
Its activity change, negative = growth inhibition is inconclusive: -32.9% [inhibitor].

Which “activity change, negative = growth inhibition” value does the source give for Cc1cc(C)nc(Nc2ncc(O)n2-c2ccc(C)c(C)c2)n1 here?
The value was inactive: -14.6%.

Which Potency does the source give for O=c1c(N2CCc3ccccc3C2)csc2ccc(Cl)cc12 here?
The Potency was inconclusive [inhibitor, single point].

With COc1ccc([C@H]2N[C@]3(CCCN(CC4CCCCC4)C3=O)[C@H]3C(=O)N(Cc4ccccc4)C(=O)[C@@H]23)cc1 as the compound, how does the Potency read?
The Potency was active: 20.6 µM.

Which Potency does the source give for COc1ccc(F)cc1-c1cc(NC=O)c2ncc(-c3cccc(C(F)(F)F)c3)n2c1 here?
Its Potency is active: 4.61 µM.

Which Potency does the source give for O=S(=O)(/C=C/c1ccccc1)N1CCN(Cc2ccc3c(c2)OCO3)CC1 here?
Its Potency is inconclusive [inhibitor, single point].

Which Potency does the source give for CC(C)c1nc(C(N)=O)c2[nH]c(=O)n(-c3ccc(F)cc3)c2n1 here?
The Potency was inconclusive [inhibitor, single point].
